Out of some 310,000 compounds screened, about 14,000 (4.5%) showed an effect of 50% or more. Effects have a minus sign here. Some of the results follow.
Molecular target: human ether-à-go-go-related gene (hERG) potassium channel (human, UniProt Q12809)
Experiment: primary screen, population patch clamp on CHO cells stably expressing hERG
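Also: peak tail current of the secondary pulse compared with the same well before compound.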

Chain of human ether-à-go-go-related gene (hERG) potassium channel (Q12809 whole entry, looked up): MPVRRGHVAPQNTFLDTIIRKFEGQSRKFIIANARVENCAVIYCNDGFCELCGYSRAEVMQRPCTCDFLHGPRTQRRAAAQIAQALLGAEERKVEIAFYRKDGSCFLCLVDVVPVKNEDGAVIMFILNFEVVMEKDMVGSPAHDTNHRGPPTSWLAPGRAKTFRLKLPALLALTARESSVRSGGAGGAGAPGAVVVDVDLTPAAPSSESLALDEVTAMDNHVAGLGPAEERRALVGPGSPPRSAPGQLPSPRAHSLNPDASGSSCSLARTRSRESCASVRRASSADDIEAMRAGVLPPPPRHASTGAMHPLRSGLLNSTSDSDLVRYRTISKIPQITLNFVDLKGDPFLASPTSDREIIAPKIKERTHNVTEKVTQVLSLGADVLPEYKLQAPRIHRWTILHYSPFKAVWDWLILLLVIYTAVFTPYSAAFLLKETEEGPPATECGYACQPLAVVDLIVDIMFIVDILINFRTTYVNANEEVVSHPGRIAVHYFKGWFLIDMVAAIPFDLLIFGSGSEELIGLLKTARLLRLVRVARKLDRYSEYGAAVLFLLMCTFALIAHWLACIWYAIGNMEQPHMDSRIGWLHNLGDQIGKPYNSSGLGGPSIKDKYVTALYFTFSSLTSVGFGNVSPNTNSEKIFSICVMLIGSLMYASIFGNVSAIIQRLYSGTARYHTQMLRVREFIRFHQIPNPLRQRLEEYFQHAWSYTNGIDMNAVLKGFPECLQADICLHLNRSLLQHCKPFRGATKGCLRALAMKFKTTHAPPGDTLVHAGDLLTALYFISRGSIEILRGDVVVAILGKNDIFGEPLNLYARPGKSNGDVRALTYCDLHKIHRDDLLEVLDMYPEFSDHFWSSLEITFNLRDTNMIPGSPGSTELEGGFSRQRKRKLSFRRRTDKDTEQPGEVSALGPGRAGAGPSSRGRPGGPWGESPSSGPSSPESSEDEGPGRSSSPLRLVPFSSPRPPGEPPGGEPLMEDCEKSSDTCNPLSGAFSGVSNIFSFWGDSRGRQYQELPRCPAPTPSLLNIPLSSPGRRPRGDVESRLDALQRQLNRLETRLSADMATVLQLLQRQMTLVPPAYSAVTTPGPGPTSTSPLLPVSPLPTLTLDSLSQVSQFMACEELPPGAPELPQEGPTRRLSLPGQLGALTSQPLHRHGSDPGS

| Compound | hERG current change (%, negative = inhibition) at 10uM |
| --- | --- |
| O=C(CN1C(=O)/C(=C\c2cccc(Br)c2)Oc2ccccc21)NCC1CCCO1 (stereo not shown) | 20.5% |
| CCCS(=O)(=O)N1CCCC(C(=O)Oc2ccc(OC)cc2)C1 (stereo not shown) | 14.7% |
| Cc1ccc(NC(=O)CCC(=O)c2cccs2)c(Br)c1 | 10.5% |
| CCCc1[nH]nc2c1C(c1cc(OC)cc(OC)c1)C(C#N)=C(N)O2 (stereo not shown) | -19.2% |
| CC1CCN(CCOc2ccc(OCc3ccccc3)cc2)CC1.O=C(O)C(=O)O | -70.9% |
| COC(=O)c1cc2c(cc1Cl)N1CCCCCC1=NS2(=O)=O | -10.7% |
| CC(=O)c1ccc(NC(=O)COC(=O)c2ccc(F)cc2F)cc1 | 16.4% |
| Cc1ccc(C(=O)c2ccc(C(F)(F)F)cc2)cc1 | 7.79% |
| COc1ccc(C(=O)N(CCc2ccccc2)Cc2ccccc2)c(OC)n1 | 2.9% |
| N=c1oc2ccccc2cc1C(=O)NCc1ccccc1 | -8.34% |
| CC1Cc2ccccc2N1C(=O)CSc1nccc(=O)[nH]1 (stereo not shown) | 18.1% |
| Cc1cc2c(cc1S(=O)(=O)Nc1ccc(OC(F)(F)F)cc1)OCC(=O)N2 | -42.5% |
| COc1cc2c(cc1OC)CN(CC(=O)NC(=O)NCc1ccco1)CC2 | -14.7% |
| COc1ccc2c(c1)O[C@@H](c1cccc(C(F)(F)F)c1)[C@H](OC(=O)Nc1ccc(OC(F)F)cc1)C2=O | 18.7% |
| COc1ccc(C(=O)N/C(=C\c2ccco2)C(=O)NCc2ccco2)cc1 | -19.7% |
| CC(=O)Nc1ccc(CNC(=O)C[N+]2(C)CCOCC2)cc1.[Cl-] | 15.9% |
| COc1ccc(C(=O)N/C(=C/c2cccnc2)C(=O)N2CCOCC2)cc1OC | 19.8% |
| O=C(O)C1=C(OCc2ccc(F)c(F)c2)C(=O)NCC1 | 16.5% |
| O=C(O/N=C\c1ccc(N2CCCCC2)c([N+](=O)[O-])c1)c1ccc(Cl)cc1Cl | -1.17% |
| CC(C)Oc1cccc(OCCN2C(=O)c3ccccc3C2=O)c1 | -32% |
| CC(Sc1nnc(-c2cccs2)n1N)C(=O)NCC1CCCO1 (stereo not shown) | 1.5% |
| CC(CC(=O)Nc1nncs1)c1ccccc1 (stereo not shown) | 10.7% |

| Compound | hERG current change (%, negative = inhibition) at 10uM |
| --- | --- |
| Cc1cc(Cl)cc2sc(NC(=O)c3ccco3)nc12 | -14.6% |
| Cc1cc(NC(=O)CSc2nnc(C)c(=O)[nH]2)no1 | 11.5% |
| COc1ccc(/C(=N/Nc2ncnc3ccccc23)C(=O)O)cc1 | 20.9% |
| O=C1c2ccccc2C(=O)N1CC1c2ccccc2CCN1C(=O)C1CCCCC1 (stereo not shown) | -29.3% |
| CCOC(=O)N1CCN(C(=O)c2cccn3c(=O)c4cc(Cl)ccc4nc23)CC1 | -65.7% |
| Cc1cc2[nH]c(=O)c(=O)[nH]c2cc1S(=O)(=O)N1CCN(c2cccc(C(F)(F)F)c2)CC1 | 13.2% |
| O=c1cc(/C=C/c2cccs2)[nH]c2ccccc12 | 7.48% |
| Cc1ccc(C)c(NC(=O)c2cc(-c3cccnc3)nc3ccccc23)c1 | 5.65% |
| Cc1cc(/C=C(\C#N)C(=O)O)c(C)n1-c1ccc(Br)cc1 | 5.6% |
| COc1cc(C(C)=O)ccc1OCC(O)CN1CCN(c2c(C)cccc2C)CC1 (stereo not shown) | -60.3% |
| O=C(c1ccc2[nH]c(=O)c(=O)[nH]c2c1)N1CCc2ccccc21 | 9.52% |
| CCN1CCc2c(OCC(=O)N3CCc4ccccc43)cccc2C1=O | -9.73% |
| CCSc1ccc([C@@H]2[C@@H]3C(=O)N(CC)C(=O)[C@@H]3[C@]3(C(=O)OC)CCCN23)cc1.O=C(O)C(F)(F)F | 3.5% |
| O=C(NN1C(=O)c2cc(Br)ccc2NC1c1cc(Br)cc(Br)c1O)c1ccncc1 (stereo not shown) | 3.09% |
| O=c1nc2n(c3cc(Cl)c(S(=O)(=O)N4CCOCC4)cc13)CCCCC2 | 9.97% |
| Cc1nc2ccccc2c(=O)n1NC(=O)c1ccc([N+](=O)[O-])cc1 | 13.3% |
| O=C(CC(c1ccccc1)c1ccccc1)Nc1nn[nH]n1 | 16.3% |
| Cc1ccc(CNC(=O)CCSCc2ccccc2F)cc1 | 0.723% |
| Fc1cnc(N2CCc3ccccc32)nc1N1CCc2ccccc21 | 4.54% |
| CCN1CCN(S(=O)(=O)c2ccc(Cl)c(C(=O)NC3CC3)c2)CC1 | 13.9% |
| CC(C)C(=O)Nc1ccc([N+](=O)[O-])cc1Br | -5.22% |
| CC(=O)Nc1ccc(-c2nc(C)c(C(C)=O)n2O)cc1 | -0.0921% |

| Compound | hERG current change (%, negative = inhibition) at 10uM |
| --- | --- |
| COc1ccc(C2C3=C(CC(C)(C)CC3=O)Nc3c2c(=O)n(C)c(=O)n3C)cc1OC (stereo not shown) | 7.95% |
| O=C(NN1C(=O)c2ccccc2NC1c1ccoc1)c1ccc([N+](=O)[O-])cc1 (stereo not shown) | -41.8% |
| O=C(c1ccco1)N1CCN(C(=O)c2ccc(Cn3cc(Br)cn3)o2)CC1 | -29.5% |
| COc1ccc2c(c1)CCc1c-2nc2ccccc2c1N1CCOCC1 | -14.6% |
| CN(C)c1ccc(C(=O)N/N=C/c2cc(Br)cc(Br)c2O)cc1 | 20% |
| Cc1ccccc1OCCCc1c(C)n[nH]c1C.Cl | 6.26% |
| Cc1ccc2cc(CCNC(=O)c3ccc4c(c3)OCO4)c(=O)[nH]c2c1 | -6.21% |
| COc1ccccc1C(=O)CSc1nnc(-c2ccco2)o1 | 28.9% |
| CC(C)NC(=O)CSCc1cccc(Br)c1 | 9.33% |
| Nc1cc2c(cc1C(=O)c1ccccc1F)OCCO2 | -2.32% |
| COc1ccccc1C1Nc2cccc3cccc(c23)N1 | -50.7% |
| CC(C)NC(=O)C(C)n1cccc1C(=O)c1ccccc1 (stereo not shown) | -4.12% |
| CCOC(=O)c1sc(NC(C)=O)cc1C | 9.67% |
| Nc1cc(-c2ccc(Cl)cc2)nn1S(=O)(=O)c1ccc(Cl)cc1 | 19.1% |
| COc1cc(/C=N/NC(=O)CC2C(=O)NN=C2C)ccc1O (stereo not shown) | 1.83% |
| CCn1c(C)c(C2=CCN(S(=O)(=O)c3ccccc3)CC2)c2ccccc21 | -17.8% |
| Cn1nnnc1SCc1nc2ccccc2s1 | 13.1% |
| Cc1cccc(C)c1NC(=O)C1(N(C(=O)c2ccccn2)c2ccc(O)cc2)CCCCC1 | 0.707% |
| CC(=O)Nc1ccc(C(=O)COC(=O)C2CC3CCCC(C2)C3=O)cc1 (stereo not shown) | 12.9% |
| CCOc1ccc(NC(=O)CN(C)C(=O)c2nc3nc(C)cc(C)n3n2)cc1OCC | 19.4% |
| Cc1ccccc1NC(=O)CSc1nc(N2CCCCC2)nc(N2CCCCC2)n1 | 3.4% |
| COC(=O)CCCCCN1C(=O)/C(=C\c2ccncc2)SC1=S | -5.05% |

| Compound | hERG current change (%, negative = inhibition) at 10uM |
| --- | --- |
| COc1ccc(CNC(=O)CCCn2nc(C)c3c(C)n(-c4ccccc4)nc3c2=O)cc1 | 2.91% |
| O=C(CSc1nnc(-c2ccco2)n1CC1CCCO1)c1ccc(F)cc1 (stereo not shown) | -31.6% |
| COc1ccc(C(=O)N/N=C/c2cccc3cccnc23)cc1 | -9.09% |
| O=C(CSc1ncccc1-c1nc2ccccc2[nH]1)NCc1ccco1 | -23.8% |
| COc1cccc(NC(=O)CN(C)CC(=O)Nc2cccc(C(F)(F)F)c2)c1 | -35% |
| COC(=O)c1ccccc1NC(=O)C1CCN(C(=O)N2CCOc3ccccc32)CC1 | -59.6% |
| CC1CC1C(=O)N(CCC1=CCCCC1)c1c(N)n(Cc2ccccc2)c(=O)[nH]c1=O (stereo not shown) | 0.478% |
| COc1cccc2[nH]c3ccccc3c(=O)c12 | 7.57% |
| O=[N+]([O-])c1ccc(NC(=S)NCc2ccncc2)cc1 | -11.2% |
| COc1ccc(OCc2n(CC(=O)OC3CC(C)CCC3C(C)C)c3ccccc3[n+]2C)cc1.[Cl-] (stereo not shown) | -76.4% |
| COc1ccc(N2CCN(c3ccc(NC(=O)NN)cc3)CC2)cc1 | 10.8% |
| COc1cccc(CN2CC(C(=O)NCc3cnn(C)c3)CCC2=O)c1 (stereo not shown) | 7.43% |
| Cc1ccc(/C=N/NC(=O)c2nnn(-c3nonc3N)c2-c2ccc3c(c2)OCO3)s1 | 22.3% |
| Cc1ccc2oc(C(=O)Nc3nonc3C)c(C)c2c1 | 10.6% |
| Cc1c(Cl)cccc1NC(=O)CSc1nc2ncc(Cl)cc2[nH]1 | 17.7% |
| CC(C)(C)C(=O)Nc1ccc(-c2nc3ccccc3c(=O)o2)cc1 | 14.9% |
| Cc1cc(C)n(-c2cc(N3CCN(C(=O)c4cccc(Br)c4)CC3)ccc2[N+](=O)[O-])n1 | -67.6% |
| C=C1CCC[C@]2(C)C[C@H]3OC(=O)C(CNC(CC)CO)[C@H]3CC12 (stereo partly shown) | 14.8% |
| COc1ccccc1C(=O)Nc1sc2c(c1C(N)=O)CCCC2 | 24% |
| COC(=O)c1cc(COC(=O)CNC(=O)c2cccc(C)c2)oc1C | -8.02% |
| COC1=C(N2CCOCC2)C(=O)c2ccccc2C1=O | 11.2% |
| O=[N+]([O-])c1cccnc1Oc1ccc(F)cc1F | -2.31% |

Reference: paper PMC4336329 (PLoS ONE, 2015)
